± gives the standard error. Variants at the background level are over-represented here.
B1: glmS ribozyme (parent)
chain: AUAAAAGCGCCAGAACUACAGAAAUGUAGUUGACGAGGAGGAGGUUUAUCGAAUUUUCGGCGGAUGCCUCCAAA

Experiments:
Settings in all cases: with glucosamine-6-phosphate
glucosamine-6-phosphate [1] = variants of: B1; assay: self-cleavage kobs at 40 uM GlcN6P; higher = faster cleavage; RNA array
Outline: (§1)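 In situ transcription by E. coli RNA polymerase produced barcoded ribozyme variants on sequenced MiSeq chips, and a hybridised Cy3 probe tracked them at 37 °C. Glucosamine-6-phosphate was flowed in at 40 μM to 10 mM in HEPES/KCl/Mg(OAc)2 buffer. kcat and KM were taken from weighted Michaelis–Menten fits of kobs values from exponential decay fits.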

glucosamine-6-phosphate [2] = variants of: B1; assay: self-cleavage kobs at 2500 uM GlcN6P; higher = faster cleavage; RNA array
Outline: as §1

glucosamine-6-phosphate [3] = variants of: B1; assay: self-cleavage kobs at 640 uM GlcN6P; higher = faster cleavage; RNA array
Outline: as §1

glucosamine-6-phosphate [4] = variants of: B1; assay: self-cleavage kobs at 160 uM GlcN6P; higher = faster cleavage; RNA array
Outline: as §1

glucosamine-6-phosphate [5] = variants of: B1; assay: self-cleavage kobs at 10000 uM GlcN6P; higher = faster cleavage; RNA array
Outline: as §1

Variant | self-cleavage kobs at 40 uM GlcN6P (glucosamine-6-phosphate [1]) [s⁻¹] | self-cleavage kobs at 2500 uM GlcN6P (glucosamine-6-phosphate [2]) [s⁻¹] | self-cleavage kobs at 640 uM GlcN6P (glucosamine-6-phosphate [3]) [s⁻¹] | self-cleavage kobs at 160 uM GlcN6P (glucosamine-6-phosphate [4]) [s⁻¹] | self-cleavage kobs at 10000 uM GlcN6P (glucosamine-6-phosphate [5]) [s⁻¹]
G13C G62A | < 1e-05 | < 1e-05 |  |  | 
G13C G62C | < 1e-05 |  | < 1e-05 | < 1e-05 | < 1e-05
G13C U31G A48U | < 1e-05 |  |  |  | 
G13U A53C U69A | < 1e-05 |  |  |  | 
G13U C16A U47G | < 1e-05 |  |  |  | 
G13U C50G | 4.61e-05 ± 1.2e-05 | 5.61e-05 ± 1.2e-05 | 6.9e-05 ± 1.6e-05 | 8.07e-05 ± 1.7e-05 | 
G13U G29C A48C G62A C71G | < 1e-05 |  |  |  | 
G13U G35C | < 1e-05 |  |  |  | 
G13U G37C | < 1e-05 |  | < 1e-05 |  | < 1e-05
G13U G51A A52U | < 1e-05 |  |  |  | 
G13U G60A | < 1e-05 |  |  | < 1e-05 | < 1e-05
G13U G63A | < 1e-05 |  | < 1e-05 |  | < 1e-05
G13U U65C | < 1e-05 |  |  |  | 
A14C A33G G40A | < 1e-05 |  |  |  | < 1e-05
A14C A33U | < 1e-05 |  |  |  | 
A14C A33U A53U U56G | < 1e-05 |  |  |  | 
A14C A52U | < 1e-05 |  |  | < 1e-05 | 
A14C A53G | 0.00012 ± 1.8e-05 |  |  |  | 
A14C C16G G35A | < 1e-05 |  |  |  | 
A14C C16U | 5.34e-05 ± 1.1e-05 | 0.000655 ± 7.7e-05 | 0.000451 ± 4.8e-05 | 0.000144 ± 1.9e-05 | 0.00118 ± 0.00016

Variant | self-cleavage kobs at 40 uM GlcN6P (glucosamine-6-phosphate [1]) [s⁻¹] | self-cleavage kobs at 2500 uM GlcN6P (glucosamine-6-phosphate [2]) [s⁻¹] | self-cleavage kobs at 640 uM GlcN6P (glucosamine-6-phosphate [3]) [s⁻¹] | self-cleavage kobs at 160 uM GlcN6P (glucosamine-6-phosphate [4]) [s⁻¹] | self-cleavage kobs at 10000 uM GlcN6P (glucosamine-6-phosphate [5]) [s⁻¹]
A14C C34U A36C U54A U65G | < 1e-05 | < 1e-05 |  | < 1e-05 | 
A14C G26A | 6.7e-05 ± 1.7e-05 | 0.00142 ± 0.00041 | 0.000887 ± 0.00023 |  | 0.00166 ± 0.00037
A14C G29A G44C A48U | < 1e-05 | < 1e-05 |  |  | 
A14C G32A A42U U54G | < 1e-05 |  |  |  | 
A14C G38U A42U U56A C68A | < 1e-05 |  |  | < 1e-05 | < 1e-05
A14C G40A G51C C58A | < 1e-05 |  |  |  | 
A14C G40C A53C U55G G66C | < 1e-05 |  |  |  | 
A14C G40U U46C C68U | < 1e-05 |  |  |  | 
A14C G41U C61U U65G | < 1e-05 | < 1e-05 |  |  | < 1e-05
A14C G44U C68G | < 1e-05 |  |  |  | < 1e-05
A14C U31C G41A | < 1e-05 |  |  |  | 
A14C U49G U55C | < 1e-05 |  |  |  | 
A14G A15C U31C G40C U54A | < 1e-05 |  |  |  | 
A14G A36G A52C C58G | < 1e-05 |  |  |  | 
A14G A36G U47G G62U U65A | < 1e-05 |  |  |  | < 1e-05
A14G A39G G41A U55G U69C A73U | < 1e-05 |  |  |  | 
A14G A39G G44C C68U | < 1e-05 |  |  |  | 
A14G A42U A53C C58A | < 1e-05 |  |  |  | 
A14G C16A U17C A18U C19A A20C | 0.000161 ± 4.5e-05 |  |  |  | 0.00427 ± 0.00081
A14G C16G | 0.000569 ± 8.6e-05 | 0.00397 ± 0.0011 | 0.00514 ± 0.0008 | 0.00113 ± 0.00027 | 0.00854 ± 0.0016

Variant | self-cleavage kobs at 40 uM GlcN6P (glucosamine-6-phosphate [1]) [s⁻¹] | self-cleavage kobs at 2500 uM GlcN6P (glucosamine-6-phosphate [2]) [s⁻¹] | self-cleavage kobs at 640 uM GlcN6P (glucosamine-6-phosphate [3]) [s⁻¹] | self-cleavage kobs at 160 uM GlcN6P (glucosamine-6-phosphate [4]) [s⁻¹] | self-cleavage kobs at 10000 uM GlcN6P (glucosamine-6-phosphate [5]) [s⁻¹]
A14G C71G | 0.00028 ± 3.6e-05 |  |  |  | 
A14G G35A G41C G51C C71U | < 1e-05 |  |  |  | < 1e-05
A14G G37U | < 1e-05 |  |  |  | 
A14G G41C | 4.74e-05 ± 9.7e-06 | 0.000737 ± 0.00013 | 0.00022 ± 5.1e-05 | 4.38e-05 ± 1.7e-05 | 
A14G U46C U54C G63C | < 1e-05 |  |  |  | 
A14U A15G G43A | < 1e-05 |  |  | < 1e-05 | 
A14U A39G G41C | < 1e-05 | < 1e-05 |  |  | 
A14U A64C | < 1e-05 |  |  |  | 
A14U G35U U69G | 0.000295 ± 0.00012 |  |  |  | 6.56e-05 ± 1.9e-05
A14U G38C U49C G59C | < 1e-05 |  |  |  | < 1e-05
A14U G60C | < 1e-05 | < 1e-05 |  |  | 
A14U G62C | < 1e-05 | < 1e-05 |  |  | 
A15C A48U | < 1e-05 |  |  |  | 
A15C C16G G41A | < 1e-05 |  |  |  | 
A15C C61G | < 1e-05 | < 1e-05 | < 1e-05 | < 1e-05 | < 1e-05
A15C G32U A33C | < 1e-05 | < 1e-05 | < 1e-05 | < 1e-05 | < 1e-05
A15C G41C | < 1e-05 |  |  |  | 2.79e-05 ± 1.2e-05
A15C G60C | < 1e-05 | < 1e-05 | < 1e-05 |  | < 1e-05
A15C U30G | 0.00258 ± 0.00062 |  | 0.0305 ± 0.0089 | 0.00591 ± 0.0015 | 
A15G C50U G60A A64C | < 1e-05 |  |  |  | 
